Read counts are not given, so values of variants with three or more changes are uncertain.
B1: LINE1-mini (parent)
chain: GGCAGAGCUCAACACAGCGUGGCAAAGUGGCUGUGGCUAGACUGCC

Variants of: B1
Experiment: self-cleavage, relative activity (ratio to wild type); higher = more cleavage; in vitro, sequencing; the parent is a self-cleaving ribozyme

| Variant | self-cleavage |
| --- | --- |
| C8U C23A G44U | 0.03 |
| G7C C23A G29U C42G | 0 |
| G2C A4G C8G A41U | 0.13 |
| A11G C15A G36A | 0.02 |
| A6C G7U G19U G22A | 0.07 |
| U20G U38A C42U | 0.31 |
| A12U G27U G33U U34G | 0.18 |
| C8U G19A G21U A25U | 0.32 |
| G1A U20C A26U | 0.5 |
| A6U C15U U38G U43C | 0.02 |
| G2C A4C U20A | 0.03 |
| A11G C15A G19A U32G C42U | 0.03 |
| C3G C13U G36U C45A | 1.86 |
| C15G G36U C42A | 0.02 |
| C13A C18A G36A | 0.03 |
| C10A A16U G27A G33U A41G | 0.01 |
| A4G G21A C23U C31A G33U U34G | 0.02 |
| G5C C15U U20A C45U | 0.02 |
| G5C C18U A25U A41U | 0.04 |
| G7A A24U A25C C42U | 0.07 |
| G22C G36A A39U | 0.1 |
| C13A U20A A25U | 0.13 |
| A12U G27U A39U | 0.01 |
| A6G G21C G29A U38A A41U C46A | 0.01 |

| Variant | self-cleavage |
| --- | --- |
| G7U C8U C10U G27U | 0.04 |
| G27A U38A C46G | 0.32 |
| C3G C23A U32G A39U U43A | 0.06 |
| U9C C15U G35U A39U | 0.01 |
| G5U C10U A26G | 0.02 |
| G2U U38A C42A | 0.04 |
| C15A A16U C18G A24G A26U | 0.03 |
| A11G G22A U32A C37U G40C U43C | 0.01 |
| A6G C10A C18U G36C | 0 |
| C10U G22C G35A U43G | 0 |
| C10U G19U A25U | 0.05 |
| C15A A24G G30A | 0.05 |
| A4C C8A G27A U43G C45A C46A | 0.03 |
| G2C A4U G19A A24G | 0.09 |
| C8G C10A C31U G35U | 0.01 |
| A6U C18G G30U U43G | 0.07 |
| C8G U9G C10G G40C | 0.02 |
| G2U A41C C45G | 0.08 |
| G21C G29U C42G | 0.01 |
| G1A C18U A26G U28A | 0.08 |
| G30C C37U U38A | 0 |
| G7U C15A C18G | 0.68 |
| A6G G7U U9G C13G G21U G44C | 1.91 |
| G5A G19U U28A G35C | 0.06 |

| Variant | self-cleavage |
| --- | --- |
| G5C G22U A24C | 0.02 |
| C3A G7U A16C A41U | 0.3 |
| C18A C23A G44C C45U | 0.08 |
| C3A U9C G17A G30U G40U | 0.01 |
| C10U A14G G30U | 0.15 |
| C10U C18U G27C U28C G29A C31G U34C G44C C46A | 0 |
| U20A G30U G36U C37A A39C | 0.09 |
| G5A C13U C15G G30U | 0.03 |
| A11U G19C G22C | 0.03 |
| A6U C8U G36C C45G C46G | 0.14 |
| G5A G7U A39G G40A | 0.16 |
| A4C A16C G40U | 0.47 |
| C15U C23U G27A G33U U34C | 0.32 |
| C18U A25G G40U | 0.02 |
| G1A A4G A6U U9G C15A C31U A39U | 0.15 |
| G7U U9C C42U | 0.04 |
| G1C U9G U34A | 0.02 |
| A12G A16C C37U C42U C45A | 0.19 |
| G7U C8A C13A C23U | 1.22 |
| U9C C13U C18G G35U U43A | 0.03 |
| G2U G5U A6C G7U A16G G36U | 0.12 |
| C15A G29A G30A G33C | 0.03 |
| A6G C23G G33C C37U | 0.02 |
| C10A C18U G44A | 0.05 |

| Variant | self-cleavage |
| --- | --- |
| C13A A25C G30A U32G | 0.02 |
| G5U A6C G19C G35C | 0.07 |
| A6C C18G G27A | 0.34 |
| C3A G17A U34A | 0.17 |
| C3U C10A U38C | 0.28 |
| G5C A24U C45U C46U | 0.07 |
| G1C A12U G36U | 0 |
| U9A A14U G33U C45G | 0.01 |
| A4C U9A C23G A39U U43C | 0.02 |
| C15A G17U A24G | 0.16 |
| C23U G29A G44A C45A | 0.06 |
| G5U G22A G36C C45G | 0.01 |
| G2A C13U C45A | 0.02 |
| C8U C10A G17A G21U G36C C46G | 0.03 |
| G2A A11G C31A | 0.05 |
| G5A G33C U34A U43C C46G | 0.04 |
| C15A G17U U38A | 0.12 |
| G1A A24C G30C G36C | 0.04 |
| A6U G7C A12G C15U G27C G40U | 0.01 |
| G2A C8A C10U C23A G33U | 0.09 |
| A24C G30A G35C G40C C46A | 0.01 |
| U28G G30U G33U | 0.02 |
| C15U A16U G17U G35U C46U | 0.05 |
| C3U C10U C31U | 0.05 |

| Variant | self-cleavage |
| --- | --- |
| G1U C23G G29A | 0.29 |
| C8G A11U A14G C15U U32G | 0.01 |
| G2A A26C G35U | 0.12 |
| A14G U20A C31A U38C | 0.01 |
| G7A C15A U28G C42A | 0.69 |
| C3A C8G C46G | 0.12 |
| G17C U32C U38G | 0.03 |
| A16C U28A G40U | 0.05 |
| C3A G21U A39C | 0.03 |
| C3A G30A G33C C37A | 0.08 |
| G2C C15G A25G U34A | 0.01 |
| C10U C15A U20A G33C A41C | 0.02 |
| G21U G22C C23U G33U U38A C42A | 0 |
| G5U C10G A14G U34G G35U G40U | 0 |
| C3A A24U C31A U34A C46A | 0.01 |
| C3A C8A A14U G19A A26C U34A A39U | 0.03 |
| G1U G7A G17C | 0.03 |
| G17U G21U U34A | 0.01 |
| G2C G27U C37A G44U | 0.18 |
| C8U C10G G21U G27C A39G C42A | 0.01 |
| A12G C15G G17A U43A | 0.17 |
| C37A C42A G44A | 0.08 |
| G22A A24G C37A | 0.02 |
| A4C C10A C31G | 0.02 |

| Variant | self-cleavage |
| --- | --- |
| G1C A4C C42G G44U | 0 |
| A11G G30A G33C U43A | 0.03 |
| G2A A14U C31G | 0.02 |
| G5C A12G G21U A26G C46A | 0.02 |
| G2A G22C A25C A26C U38G | 0 |
| C23U A26U A41U | 2.28 |
| C13U U20G C23U U43A | 0.01 |
| G5A G7A G35U A41U | 0.11 |
| U28A C37A U38C | 0.01 |
| U34A G40U A41C | 0.05 |
| G1C C3G A12C C37G C45U | 0.01 |
| G1A U9G A11C | 0.04 |
| C10A G19C G22C | 0.02 |
| G7U A11G C45A | 0.04 |
| G7A G19A A26U C37U U38G | 0.02 |
| C8U A25C G30A G33U | 0.07 |
| C8A A24U U32C U34A G36U C46U | 0.25 |
| G19A C31A C37G | 0.08 |
| G17U G22U A26G | 0.07 |
| G21C C37A G44C | 0.07 |
| C3U A6C C23U A39U | 0.42 |
| C3U U28C C31G | 0.02 |
| G2C A26U G44U | 0.12 |
| G5C U20G A26U | 0.04 |

| Variant | self-cleavage |
| --- | --- |
| C3A G29C C46A | 0.18 |
| G7U U20C G21U | 0.23 |
| G7U C8U G30U | 0.26 |
| C10A C23U A25G G33U | 0 |
| G7C G21U G27A U32A | 0.07 |
| U28A U32C G35C | 0.06 |
| A11U G17C G22A | 0.03 |
| G21U G27C U28A C31A C42G | 0.04 |
| A16G C18A G21C C31A | 0.03 |
| G19U G27A C37A U38C C45A | 0.01 |
| U9C C13U U28C | 0.03 |
| U28A G33U C37G G40C | 0.03 |
| G2A C8U G40U | 0.13 |
| G7C G17A C23U | 0.18 |
| G27C G40U C46A | 0.05 |
| G7U A12G A26U | 0.03 |
| G7U C10U C15U | 0.02 |
| A11G G17A U34G A41C | 0.04 |
| A12U A26G U32G | 0.02 |
| C3U G7U A14G | 0.38 |
| U9C C23A G33C | 0.03 |
| A12G C13U G27U G33U G35A U38C G40A | 0.01 |
| G5C G21U A25U G33U C42U | 0.1 |

Source: the RNAGym collection of RNA variant scans (doi:10.7554/elife.90254)
